Read counts are not given, so values of variants with three or more changes are uncertain.
B1: LINE1-mini (parent)
chain: GGCAGAGCUCAACACAGCGUGGCAAAGUGGCUGUGGCUAGACUGCC

Variants of: B1
Test: self-cleavage, relative activity (ratio to wild type); higher = more cleavage; in vitro, sequencing; the parent is a self-cleaving ribozyme

Variant	self-cleavage
C15U G17U C46U	0.04
C15G A25G C37G	0.02
C15A U20A C31G	0.04
C15G C23G G44U C46U	0.02
C15A G22A C45A	0.06
C15U A16C C42U C45G	0.03
C15A G27U C31A U32G	0.02
C15G U38G C46A	0.01
C15A G29A G33A G35C	0.03
C15A U20G C23U C31A	0.02
C15U C18A G19C G44C	0.04
C15G A16G G22C	0.01
C15G G29C C46U	2.14
C15G G21U G35C	0
C15U C18A G30U G36A C37A C45G	0.02
C15G G19A G27A G29C C42U	0.26
C15G A16C G44C	0.04
C15U A26G G35C C37A C42A G44C	0.05
C15U C18G A26U	0.03
C15U C31U G40C C42U	0.38
C15U C23U G30A A39G	0.03
C15A G30A U32G	0.05
C15A G21C U38A G44U	0.03
C15U A16G U28C U32A A41U	0.09

Variant	self-cleavage
C15G G36U C46A	0.02
C15G C23A A26G	0.08
C15G G35A C37A	0
C15G U28G G35U	0.01
C15U C31A A41C G44A	0.02
C15G G21C A24G C37U	0.25
C15U C18G A39U	0.11
C15G G22U C23A G29A	0.17
C15G G36C A41C	0.01
C15G G33C G40C	0
C15U C31U G40U C42U	0.05
C15U C42A U43C	0.03
C15U G17U C18G C23G	0.04
C15A G21U A25G	0.07
C15U A26U A41G	0.05
C15G G17A G36U	0.02
C15G G19C A25C U28C G36C A39G	0.02
C15U A16C G36A	0.04
C15G U34C A39G C45G	0.01
C15G G21A C23A	0.3
C15U C37G A41U G44C	0.03
C15U C18U A24U C46U	0.14
C15G U34C G35C G36C C46A	0
C15U A16C C18G C23A G29U G36C C45A	0.02

Variant	self-cleavage
C15G U20G U28G	0.08
C15A G30U A41C	0.03
C15G G17A C31G G36A	0.04
C15G U38C C42A G44A	0
C15A G21U C31A	0.03
C15A G40U A41C	0.05
C15A G36U U38G	0.08
C15A U28G G33A	0.03
C15G G21A C42G	0.02
C15A U32A C42U C46U	0.04
C15U A25U U28G	0.14
C15U A25C A26U U28G G30A G33A	0.07
C15A G30C C37U	0.03
C15A G22C U34C G35C	0.02
C15G G22U G30U G33U	0.09
C15A U32C U38G C42U	0.02
C15U G17C C46A	0.05
C15G U28A G30U U34A A41U	0
C15G G21C A26G	0.08
C15U C23U U28C	0.73
C15G A16U G17A U28C U32A	0
C15A U28G C31A	0.05
C15G U20G U34G G36U	0.04
C15G A24G G29U	0.03

Variant	self-cleavage
C15G A16U G19C G44A	0.01
C15U A24C G44U	0.02
C15G G19A C37U G44A	0
C15G U38A C42U	0.03
C15G G21U A26G C42A	0.01
C15U C18U G27C C45G	0.18
C15G G30A C31G G40U	0.02
C15G G27U G30C	0.06
C15G A25U U34A G40C	0
C15G A16U G22U U32A	0.14
C15G A41C C46A	0.03
C15G G19U C23U	0.06
C15A U28A G30A G40U A41G G44A	0.03
C15G G22U A25C A41C C42A C46U	0.01
C15U A25U U38C	0.08
C15U A16U G22A G29C	1.91
C15G G27A U32A A39C G44U	0
C15A G35A A39U C46A	0.02
C15U A25U G33A C46U	1.09
C15G G19U G40A	0.02
C15G C23A A25G C42U	0
C15U G17U G27U	0.09
C15A G27U G33A	0.19
C15G G17U C18G G19U G40U	0.01

Variant	self-cleavage
C15U G17A G21C U28C C46A	0.24
C15G C45A C46A	0.01
C15U C31A C46G	0.15
C15U C31G C37U C45G	0.03
C15A G36A C37G C45A C46U	0
C15G U20A U34G G35A	0.04
C15U A26G G27U G29U A39C	0.13
C15U C42G C45G	0.02
C15U G19A G30A	1.27
C15G G21A C42G U43A	0
C15U G19C U28C G40A C46U	0.08
C15A G27U U34G G35C	0.02
C15U A24C G30U C46A	0.02
C15A U38A C42G C46A	0.01
C15U C18A G19A C42U	0.17
C15A G44C C45U	0.02
C15U C18G A24G C31A C42U	0.02
C15G C23G A41G	0.02
C15U A25C G29U	1.75
C15G G21A A25C G33U U34G	0.01
C15G A16U A24U	0.04
C15U C23U C45G	0.06
C15G A25C C31G A41U C45U	0.02
C15G A24U G29C C45A	0.02

Variant	self-cleavage
C15G A26C U32G C42G	0.01
C15A G22A C37A	0.06
C15U A16G C31G	0.01
C15G G19C A39U	0.05
C15G A25C C37U	0.03
C15G A39G C42G	0.03
C15U G19U C42A G44A	1.34
C15G C23U G27U U28A	0.04
C15A G33A G40U	0.04
C15A U20C U32A	0.01
C15G G30A G44U	0.05
C15G U34G G36A	0.01
C15U G17C A24U	0.06
C15G G22U C42A	0.03
C15A U32G G35U U38G	0.02
C15U A16U U43G	0.12
C15G G19A G21A C23G G36U	0.03
C15G C18A A39U	0.04
C15G G30C C37A	0.02
C15U C18U C37U	0.1
C15G G21C C31U	0
C15A U32C A39G	0.06
C15G A24C A26C G36U	0.1
C15G G35A A41C	0.03

Variant	self-cleavage
C15G G44U C46G	0.03
C15A U28C G33U A39G	0.08
C15U G19A U32A C42A	0.04
C15G G30C G35A	0.01
C15G G36A U38A	0.04
C15U A41C C46A	0.03
C15A G21U C46G	0.02
C15U A26C C45A	0.12
C15U A25U U32G U38G	0.03
C15U G19C G27C	1.2
C15A G29A U43G G44C	0.03
C15G U34G G44C	0.01
C15G C23A G35A	0.05
C15G A25G U32G	0.01
C15U G17A G40U	0.22
C15U G17C C23A A26U G27A G40U	0.02
C15U A16C G17A U20G U43C	0.01
C15G A16U G21A G33C G40A C42A	0.01
C15U C23A A25C G33C	0.03
C15U A16U U34A	0.02
C15G C18A U32C	0.02
C15G U32A U38C	0.01
C15G G40A G44U	0.05

Source: the RNAGym collection of RNA variant scans (doi:10.7554/elife.90254)
